{"source": "paper PMC4336329", "about": "(PLoS ONE, 2015)", "note": "The whole screen tested about 310,000 compounds, of which about 14,000 (4.5%) showed an effect of 50% or more. Effects have a minus sign here. Some of the results follow.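 Further: peak tail current of the secondary pulse compared with the same well before compound.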", "data": [{"target": "human ether-à-go-go-related gene (hERG) potassium channel (human, UniProt Q12809)", "sequence (Q12809 whole entry, looked up)": "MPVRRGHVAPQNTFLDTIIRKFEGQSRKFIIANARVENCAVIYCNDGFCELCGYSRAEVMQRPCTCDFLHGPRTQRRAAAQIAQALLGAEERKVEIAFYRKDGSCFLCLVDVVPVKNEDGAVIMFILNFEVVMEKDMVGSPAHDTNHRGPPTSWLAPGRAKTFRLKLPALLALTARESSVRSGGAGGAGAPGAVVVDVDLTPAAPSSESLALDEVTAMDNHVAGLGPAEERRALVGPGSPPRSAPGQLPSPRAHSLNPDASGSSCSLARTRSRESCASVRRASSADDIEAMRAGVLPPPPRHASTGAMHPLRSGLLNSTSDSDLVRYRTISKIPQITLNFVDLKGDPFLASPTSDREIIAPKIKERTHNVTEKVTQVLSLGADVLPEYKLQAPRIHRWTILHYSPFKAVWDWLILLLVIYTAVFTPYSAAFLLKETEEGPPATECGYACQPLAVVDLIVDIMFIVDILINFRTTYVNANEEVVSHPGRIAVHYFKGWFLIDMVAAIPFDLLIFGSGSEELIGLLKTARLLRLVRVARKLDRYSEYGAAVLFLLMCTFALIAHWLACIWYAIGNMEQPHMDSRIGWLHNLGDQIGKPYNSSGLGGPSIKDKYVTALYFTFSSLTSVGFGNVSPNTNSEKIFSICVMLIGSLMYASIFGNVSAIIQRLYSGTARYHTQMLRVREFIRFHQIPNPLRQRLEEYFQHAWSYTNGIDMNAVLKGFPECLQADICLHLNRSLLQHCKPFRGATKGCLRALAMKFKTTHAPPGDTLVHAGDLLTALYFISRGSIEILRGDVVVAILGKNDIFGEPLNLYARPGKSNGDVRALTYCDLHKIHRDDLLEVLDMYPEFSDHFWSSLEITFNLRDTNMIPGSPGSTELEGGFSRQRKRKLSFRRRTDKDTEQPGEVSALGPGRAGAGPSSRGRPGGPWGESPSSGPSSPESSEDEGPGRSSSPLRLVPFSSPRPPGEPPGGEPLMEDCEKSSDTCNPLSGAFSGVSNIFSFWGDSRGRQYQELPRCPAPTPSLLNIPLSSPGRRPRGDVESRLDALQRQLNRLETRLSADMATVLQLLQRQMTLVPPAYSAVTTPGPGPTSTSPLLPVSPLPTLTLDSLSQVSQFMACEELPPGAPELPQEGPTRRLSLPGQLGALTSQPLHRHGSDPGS", "experiment": "primary screen, population patch clamp on CHO cells stably expressing hERG", "units": {"hERG current change (%, negative = inhibition) at 10uM": "%"}, "values": [{"smiles": "COc1ccc(OC)c2[nH]c(=O)c(CCNC(=O)c3ccc4c(c3)OCO4)cc12", "hERG current change (%, negative = inhibition) at 10uM": -10.2}, {"smiles": "CCOC(=O)[C@H]1[C@H]2COc3cc(OC)ccc3[C@@H]2N2C(=O)N(c3cccc(Cl)c3)C(=O)[C@@]12C", "hERG current change (%, negative = inhibition) at 10uM": 1.79}, {"smiles": "CC(C)(C)OC(=O)N/N=C\\c1ccc[nH]1", "hERG current change (%, negative = inhibition) at 10uM": 11}, {"smiles": "O=C(C1CCCC1)N1CCN(S(=O)(=O)c2ccc(F)c(F)c2F)CC1", "hERG current change (%, negative = inhibition) at 10uM": -6.2}, {"smiles": "Cc1cc2c(cc1C)NC1(C(=O)Nc3ccccc31)C1=C(CC(C)(C)CC1=O)N2", "note": "(stereo not drawn)", "hERG current change (%, negative = inhibition) at 10uM": 4.27}, {"smiles": "Cc1nn(Cc2ccccc2)c(=O)c2nn(-c3ccc(Cl)cc3)c(C)c12", "hERG current change (%, negative = inhibition) at 10uM": 0.936}, {"smiles": "O=C(OCC(=O)N1CCCc2ccccc21)c1ccc(C(F)(F)F)cc1", "hERG current change (%, negative = inhibition) at 10uM": -8.53}, {"smiles": "O=c1[nH]c(NCc2ccco2)nnc1Cc1ccccc1Cl", "hERG current change (%, negative = inhibition) at 10uM": 4.77}, {"smiles": "CCCOCC1CC2(SC(=Nc3ccc(C)cc3)NC2=O)C(=O)O1", "note": "(stereo not drawn)", "hERG current change (%, negative = inhibition) at 10uM": 2.19}, {"smiles": "Cn1c(=O)c(=O)n(C)c2cc(N3CCCC3)c(NS(=O)(=O)c3ccc(Cl)cc3)cc21", "hERG current change (%, negative = inhibition) at 10uM": -44.3}, {"smiles": "Cc1cc(/C=C2\\NC(=S)NC2=O)c(C)n1-c1cccnc1", "hERG current change (%, negative = inhibition) at 10uM": 8.09}, {"smiles": "COc1ccccc1NS(=O)(=O)c1ccc(Cl)cc1", "hERG current change (%, negative = inhibition) at 10uM": -19.5}, {"smiles": "COc1ccc(N2C(=NC(=O)CCC3CCCC3)SC3CS(=O)(=O)CC32)cc1", "note": "(stereo not drawn)", "hERG current change (%, negative = inhibition) at 10uM": 12.4}, {"smiles": "O=C(CCc1ccccc1)NNC(=O)Nc1ccccc1", "hERG current change (%, negative = inhibition) at 10uM": 1.26}, {"smiles": "CCOc1ccc(NC(=O)C2CCN(S(=O)(=O)c3c(C)n[nH]c3C)CC2)cc1", "hERG current change (%, negative = inhibition) at 10uM": -4.37}, {"smiles": "O=C(CSc1nnnn1-c1ccc(F)cc1)c1ccc(O)c(O)c1", "hERG current change (%, negative = inhibition) at 10uM": -33}, {"smiles": "O=C(O)c1cccc2cc(-c3ccccc3)oc(=O)c12", "hERG current change (%, negative = inhibition) at 10uM": 17.3}, {"smiles": "CC(C)(C)NC(=O)NC(=O)CN1CCN(S(=O)(=O)/C=C/c2ccccc2)CC1", "hERG current change (%, negative = inhibition) at 10uM": 2.49}, {"smiles": "Cc1cc(C)nc(N(C#N)CCOc2ccc(Cl)cc2)n1", "hERG current change (%, negative = inhibition) at 10uM": -9.86}, {"smiles": "CC(NS(=O)(=O)/C=C/c1ccccc1)c1ccccc1", "note": "(stereo not drawn)", "hERG current change (%, negative = inhibition) at 10uM": 1.99}, {"smiles": "CS(=O)(=O)c1[nH]nc(-c2ccccc2Cl)c1C#N", "hERG current change (%, negative = inhibition) at 10uM": 9.78}, {"smiles": "Cc1nnc(SCc2ccc(C(=O)O)cc2)s1", "hERG current change (%, negative = inhibition) at 10uM": -0.778}, {"smiles": "COc1cccc(C(=O)CC(C(=O)O)c2ccc(Cl)cc2)c1", "note": "(stereo not drawn)", "hERG current change (%, negative = inhibition) at 10uM": 10.1}, {"smiles": "COc1ccc(C(C)NC(=O)C23CC4CC(CC(C4)C2)C3)cc1OC", "note": "(stereo not drawn)", "hERG current change (%, negative = inhibition) at 10uM": 3.91}, {"smiles": "Cc1cc(C(=O)CSc2nnc(-c3ccc(OC(F)F)cc3)o2)c(C)n1Cc1cccs1", "hERG current change (%, negative = inhibition) at 10uM": 3.5}, {"smiles": "CCC(CC)C1=NN2C(=N)/C(=C\\c3cc(C)n(-c4cccc(C)c4)c3C)C(=O)N=C2S1", "hERG current change (%, negative = inhibition) at 10uM": -0.816}, {"smiles": "CCC(=O)N1CCc2cc(S(=O)(=O)NCCC(=O)Nc3cc(C)cc(C)c3)ccc21", "hERG current change (%, negative = inhibition) at 10uM": -3.31}, {"smiles": "O=C(NCCCN1CCOCC1)C1CC(=O)N(C2CCCCC2)C1", "note": "(stereo not drawn)", "hERG current change (%, negative = inhibition) at 10uM": 13.3}, {"smiles": "CC(=O)N/C(N)=N/c1nc2cc([N+](=O)[O-])ccc2o1", "hERG current change (%, negative = inhibition) at 10uM": 8.18}, {"smiles": "NC(=O)c1ccc[n+](Cc2ccc(-c3ccccc3)cc2)c1.[Cl-]", "hERG current change (%, negative = inhibition) at 10uM": 12.2}, {"smiles": "COc1nc(-c2cccs2)cc(-c2ccc(C)cc2)c1C#N", "hERG current change (%, negative = inhibition) at 10uM": 25.7}, {"smiles": "CC(C)OC(=O)C1C(=O)CC(C)(O)C(C(=O)OC(C)C)C1c1ccc([N+](=O)[O-])cc1", "note": "(stereo not drawn)", "hERG current change (%, negative = inhibition) at 10uM": 7.32}, {"smiles": "Cc1ccc(Sc2ncccc2N)cc1", "hERG current change (%, negative = inhibition) at 10uM": 7.42}, {"smiles": "CCOc1ccc(C(=O)CN2CCN(S(=O)(=O)c3ccc(F)cc3)CC2)cc1", "hERG current change (%, negative = inhibition) at 10uM": -63}, {"smiles": "CC(=O)Nc1ccc(S(=O)(=O)N2CCC(N(C)CCC(C)C)CC2)cc1.Cl", "hERG current change (%, negative = inhibition) at 10uM": -46.8}, {"smiles": "COc1ccc2cc(CN(C(=O)Nc3ccccc3)C3CCCC3)c(=O)[nH]c2c1", "hERG current change (%, negative = inhibition) at 10uM": -60.5}, {"smiles": "CCOC(=O)C(=O)Nc1ncc(Cl)s1", "hERG current change (%, negative = inhibition) at 10uM": 0.621}, {"smiles": "CCCn1c(=N)n(CC(O)c2ccco2)c2ccccc21.Cl", "note": "(stereo not drawn)", "hERG current change (%, negative = inhibition) at 10uM": -43.8}, {"smiles": "CCCC(=O)n1nc(-c2ccc(OC)cc2)nc1N", "hERG current change (%, negative = inhibition) at 10uM": 5.3}, {"smiles": "CS(=O)(=O)c1ccc(C(=O)N2CCN(Cc3ccccc3)CC2)cc1", "hERG current change (%, negative = inhibition) at 10uM": -55}, {"smiles": "Cc1cc(NC(=O)c2c(-c3c(Cl)cccc3Cl)noc2C)n(C)n1", "hERG current change (%, negative = inhibition) at 10uM": 16}, {"smiles": "O=S(=O)(NC(=S)NC1CCCCC1)c1ccc(Br)cc1", "hERG current change (%, negative = inhibition) at 10uM": 9.58}, {"smiles": "CC(C)c1ccc(CC(NC(=O)c2ccccc2)C(=O)NCC(=O)O)cc1", "note": "(stereo not drawn)", "hERG current change (%, negative = inhibition) at 10uM": 31.2}, {"smiles": "C=CCN1C(=O)N(c2ccc(F)cc2)C(=O)C1CC(=O)Nc1ccc(Cl)cc1", "note": "(stereo not drawn)", "hERG current change (%, negative = inhibition) at 10uM": 8.38}, {"smiles": "COc1ccc(C(=O)NNC(=O)c2ccccc2[N+](=O)[O-])cc1[N+](=O)[O-]", "hERG current change (%, negative = inhibition) at 10uM": 2.32}, {"smiles": "CCOC(=O)c1ccc2c(c1)nc(SCc1cn3ccsc3n1)n2CC", "hERG current change (%, negative = inhibition) at 10uM": -40}, {"smiles": "COc1ccc2[nH]c(=O)c(CN(CCN(C)C)C(=O)NCc3ccccc3)cc2c1", "hERG current change (%, negative = inhibition) at 10uM": 9.31}, {"smiles": "Cc1c(NC(=O)c2ccc3c4c(cccc24)CC3)c(=O)n(-c2ccccc2)n1C", "hERG current change (%, negative = inhibition) at 10uM": 4.88}, {"smiles": "COC(=O)CN1C(=O)Nc2ccc(Cl)cc2C1c1ccccc1", "note": "(stereo not drawn)", "hERG current change (%, negative = inhibition) at 10uM": 7.58}, {"smiles": "O=C1c2ccccc2NC(c2ccc(Br)s2)N1O", "note": "(stereo not drawn)", "hERG current change (%, negative = inhibition) at 10uM": 12.8}, {"smiles": "CC(C)C1Nc2ccc(S(=O)(=O)N3CCOCC3)cc2NC1=O", "note": "(stereo not drawn)", "hERG current change (%, negative = inhibition) at 10uM": 29.6}, {"smiles": "CS(=O)(=O)N(CC(=O)Nc1ccc(S(=O)(=O)N2CCCC2)cc1)c1ccccc1", "hERG current change (%, negative = inhibition) at 10uM": 19.8}, {"smiles": "CCOc1ccc(CC(=O)N2N=C(C)CC2(O)C(F)(F)F)cc1", "note": "(stereo not drawn)", "hERG current change (%, negative = inhibition) at 10uM": 6.66}, {"smiles": "CC(=NCCCO)c1c(O)n(Cc2ccccc2)c(=O)[nH]c1=O", "hERG current change (%, negative = inhibition) at 10uM": 8.83}, {"smiles": "O=C(NCCNC(=O)c1ccccc1Cl)c1ccco1", "hERG current change (%, negative = inhibition) at 10uM": 20.6}, {"smiles": "Nc1c(-c2ccc(Cl)cc2)cnn1C1CCS(=O)(=O)C1", "note": "(stereo not drawn)", "hERG current change (%, negative = inhibition) at 10uM": -11.8}, {"smiles": "O=C(CSc1nccc(=O)[nH]1)NN(c1ccccc1)c1ccccc1", "hERG current change (%, negative = inhibition) at 10uM": 7.73}]}]}
